# Results as given in article PMC4336329 (PLoS ONE, 2015).
# Out of some 310,000 compounds screened, about 14,000 (4.5%) showed an effect of 50% or more. Effects have a minus sign here. The list shows a part of the results.
# Target: human ether-à-go-go-related gene (hERG) potassium channel (human, UniProt Q12809)
# Test: primary screen, population patch clamp on CHO cells stably expressing hERG
# 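Note: peak tail current of the secondary pulse compared with the same well before compound.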
# human ether-à-go-go-related gene (hERG) potassium channel, sequence (Q12809 whole entry, looked up): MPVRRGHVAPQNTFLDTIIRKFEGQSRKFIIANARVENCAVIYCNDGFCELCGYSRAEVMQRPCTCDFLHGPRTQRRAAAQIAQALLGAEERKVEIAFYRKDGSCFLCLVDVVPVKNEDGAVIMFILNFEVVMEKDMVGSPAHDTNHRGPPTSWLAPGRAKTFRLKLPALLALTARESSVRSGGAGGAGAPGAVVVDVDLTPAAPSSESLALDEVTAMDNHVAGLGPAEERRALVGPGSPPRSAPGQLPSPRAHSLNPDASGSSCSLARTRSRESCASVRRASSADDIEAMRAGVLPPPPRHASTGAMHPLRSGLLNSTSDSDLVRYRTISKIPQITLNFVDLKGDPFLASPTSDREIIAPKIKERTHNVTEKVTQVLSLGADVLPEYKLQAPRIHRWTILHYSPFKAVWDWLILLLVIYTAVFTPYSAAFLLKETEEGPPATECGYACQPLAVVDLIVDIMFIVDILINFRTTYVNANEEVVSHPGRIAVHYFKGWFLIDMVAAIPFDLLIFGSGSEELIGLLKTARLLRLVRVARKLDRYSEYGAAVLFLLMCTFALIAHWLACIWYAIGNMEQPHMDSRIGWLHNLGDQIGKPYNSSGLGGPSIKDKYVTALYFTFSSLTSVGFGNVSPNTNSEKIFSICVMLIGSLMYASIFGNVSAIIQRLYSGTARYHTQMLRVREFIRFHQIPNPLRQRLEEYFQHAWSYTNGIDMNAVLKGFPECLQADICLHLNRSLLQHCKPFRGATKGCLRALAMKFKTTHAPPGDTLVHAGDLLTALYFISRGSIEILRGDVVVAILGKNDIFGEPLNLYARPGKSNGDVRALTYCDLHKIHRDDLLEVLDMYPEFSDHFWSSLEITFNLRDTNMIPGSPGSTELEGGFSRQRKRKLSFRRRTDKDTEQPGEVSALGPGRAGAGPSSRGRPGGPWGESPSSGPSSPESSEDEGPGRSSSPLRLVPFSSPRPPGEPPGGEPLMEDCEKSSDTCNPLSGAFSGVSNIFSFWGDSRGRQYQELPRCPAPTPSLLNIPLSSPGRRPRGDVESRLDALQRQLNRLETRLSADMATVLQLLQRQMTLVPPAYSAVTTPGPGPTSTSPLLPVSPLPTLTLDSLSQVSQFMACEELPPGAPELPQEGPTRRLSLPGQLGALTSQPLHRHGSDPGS
row,Structure (SMILES),"hERG current change (%, negative = inhibition) at 10uM [%]"
1,CCCCOc1ccc(/C=C/C(=O)N(CC)CC(=O)Nc2ccc3c(c2)OCCO3)cc1OC,-28.9
2,COc1ccc(-n2nc(C(=O)NCC(=O)NC(C)C)c3ccccc3c2=O)cc1Cl,4.05
3,CCCCn1nc(C(=O)NCC2COc3ccccc3O2)c2ccccc2c1=O (stereo not drawn),-49.1
4,CC(C)(C)c1cc(C(=O)NNS(=O)(=O)c2ccccc2)n[nH]1,9.31
5,O=C(Nc1ccccc1)C1CCN(C(=O)c2ccc([N+](=O)[O-])cc2)CC1,-71.4
6,COc1ccc(C(=O)NC=C2C(=O)OC(C)(C)OC2=O)cc1,4.18
7,COC(=O)c1ccc(S(=O)(=O)NC(C)(C)C)n1C,15.7
8,CCOc1ccc(NC(=O)Nc2nc3ccc(S(C)(=O)=O)cc3s2)cc1,16.6
9,Cc1cccn2c(=O)c(C=O)c(N3CCCCCC3)nc12,-11.5
10,COc1ccc(-c2oc3cccnc3c2/C=C/c2ccc(OC)c(OC)c2)cc1,23.5
11,Cc1nc([N+](=O)[O-])cn1CC(=O)Nc1ccc(F)c(Cl)c1,25.4
12,S=C(c1ccc[nH]1)N1CCOCC1,25.7
13,COc1ccc(-n2c(Cc3cc(=O)[nH]c(=O)[nH]3)nnc2SCC(=O)N2CCC(C)CC2)cc1,5.03
14,CC1CCCCC1NC(=O)CCn1c(=O)sc2ccccc21 (stereo not drawn),7.23
15,CCOC(=O)c1cc(-c2ccccc2)n(CCC(=O)NC(C)CC)c1C (stereo not drawn),-12.5
16,CC(C)(C)c1ccc(NC(=O)Cn2cnc3cc([N+](=O)[O-])ccc3c2=O)cc1,11.7
17,Cc1cc2c(cc1S(=O)(=O)N1CCN(c3ccc(Cl)cc3)CC1)OCCN2C,6.05
18,Cc1nc2c(=O)n(-c3ccc(F)cc3F)nc(C)c2s1,16.2
19,Cn1c(N)c(C(=O)COC(=O)/C=C/c2ccc(S(=O)(=O)N3CCOCC3)cc2)c(=O)n(C)c1=O,-1.72
20,CC(C)(C)OC(=O)NCCCCCc1nnc(SCc2cccc(F)c2)o1,-38.1
21,CC(=O)Nc1ccc(NC(=O)Nc2cccc(Cl)c2)cc1,15.9
22,CCNC(=S)N/N=C/c1sc(N2CCCCC2)nc1-c1cccs1,9.09
23,O=C1C(O)CC2c3ccccc3CC3(CCCC3)N12 (stereo not drawn),6.83

row,Structure (SMILES),"hERG current change (%, negative = inhibition) at 10uM [%]"
1,CCOC(=O)c1c(N)sc2c1CCN(CCc1ccccc1)C2,-28.6
2,CCCNC(=O)C(Cc1cccc(C#N)c1)NC(=O)c1cccc([N+](=O)[O-])c1 (stereo not drawn),-10.2
3,NC(=O)c1cc[n+](Cc2ccccc2Cl)cc1.[Br-],12.5
4,Cn1c(/C=C/c2ccc(Cl)cc2)c([N+](=O)[O-])c(=O)n(C)c1=O,-44.8
5,COCCN(C(=S)Nc1cccc(OC)c1)C(C)c1cccs1 (stereo not drawn),-8.4
6,Cc1cc(N2CCCC2=O)c(N)cc1N,17.4
7,CCOc1ccc(NS(=O)(=O)c2ccc(C(=O)NCC3(N4CCCCC4)CCCCC3)cc2)cc1,-11
8,COCCCNC(=O)/C(C#N)=C/c1ccc(F)cc1,6.92
9,CCOc1ccc(S(=O)(=O)N2CCOCC2)cc1NC(=O)CN1C(=O)NC2(CCCCC2)C1=O,-17.9
10,COc1cc(NC(=O)N2CCNC2=O)cc(C(=O)Nc2cccc(C(F)(F)F)c2)c1,-7.85
11,O=C(O)c1cc(-c2cccs2)nc2cc3c(cc12)OCCO3,-9.08
12,CCOC(=O)c1cccc(C2=CC(=O)CC(C)(C)C2)c1,-33.9
13,O=S(=O)([N-]c1nc2ccccc2nc1-n1cc[n+](Cc2ccccc2)c1)c1ccccc1,-1.68
14,COc1cc(C(=O)NC(c2ccccc2)c2ccccc2)cc(Cl)c1OC,3.78
15,COc1cccc(NC(=O)N2CCCC(C(=O)NC3CCCCC3C)C2)c1 (stereo not drawn),-2.78
16,O=C(Nc1ccc(CN2CCOCC2)cc1)c1ccc2ccccc2c1,-47.1
17,Cc1ccc(S(=O)(=O)N2CCC(C(=O)OC(C)C(=O)NC3CCCCC3C)CC2)cc1C (stereo not drawn),-25.4
18,Cc1ccc(N2C(=O)c3ccc(N)cc3C2=O)cc1C,0.256
19,COC(=O)C(C(C)C)N1CCc2c(C)nc3c(C#N)cnn3c21 (stereo not drawn),13.9
20,CCOC(=O)N1CCN(C(=S)NC(=O)C23CC4CC(CC(C4)C2)C3)CC1,4.1
21,Cc1cnc(C(=O)NCCc2ccc(C(F)(F)F)cc2)cn1,8.37
22,COc1ccc(-c2cc(C)no2)cc1S(=O)(=O)N(C)c1ccc(C)c(C)c1,-1.83
